Source: PMC3335838
No constants are given. Whether binding was seen depends on the method and setting. For part of these data: In cells and extracts the contact can be indirect. Some entries that bind do so weakly or less than the wild type. For part of these data: Sequences can lack the tags named with a protein.

Assays:
[1] = target: T1, DRB4 (Double-stranded RNA Binding protein 4), full length, yeast two-hybrid fusion (Arabidopsis) (UniProt Q8H1D4); assay: two-hybrid; pair-wise, cross-mating of S. cerevisiae PJ69-4a and PJ69-4 alpha; diploids on SD-LW, interactions selected on -LWA; 28°C for 3 days (Figure 2)
T1 sequence: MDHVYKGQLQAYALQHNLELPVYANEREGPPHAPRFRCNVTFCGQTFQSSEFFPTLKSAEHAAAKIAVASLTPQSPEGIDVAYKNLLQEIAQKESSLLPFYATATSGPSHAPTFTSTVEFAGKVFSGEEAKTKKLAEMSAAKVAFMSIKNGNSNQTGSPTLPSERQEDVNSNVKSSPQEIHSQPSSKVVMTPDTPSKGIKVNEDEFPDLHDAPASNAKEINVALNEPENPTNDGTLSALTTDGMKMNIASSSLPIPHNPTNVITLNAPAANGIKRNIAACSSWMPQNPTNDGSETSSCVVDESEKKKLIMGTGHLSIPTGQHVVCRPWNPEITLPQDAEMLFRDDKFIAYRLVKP

[2] = target: T2, APC10/DOC1, yeast two-hybrid fusion (Arabidopsis) (UniProt Q9ZPW2); assay: as above
T2 sequence: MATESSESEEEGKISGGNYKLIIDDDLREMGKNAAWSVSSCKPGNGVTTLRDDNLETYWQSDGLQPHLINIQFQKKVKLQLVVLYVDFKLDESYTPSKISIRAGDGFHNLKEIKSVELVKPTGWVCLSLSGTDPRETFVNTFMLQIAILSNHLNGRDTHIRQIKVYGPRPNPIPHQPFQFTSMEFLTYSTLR

[3] = target: T3, GST-CDC20-1 (Arabidopsis) (UniProt Q9SZA4); assay: pull-down; GST fusion proteins on glutathione-Sepharose beads incubated with in vitro translated [35S]methionine-labelled DRB4 for 4 h at 4°C; washed with extraction buffer (150 mM NaCl, 100 mM Tris pH 7.5, 0.5% NP40); autoradiography; only the target purified
T3 sequence: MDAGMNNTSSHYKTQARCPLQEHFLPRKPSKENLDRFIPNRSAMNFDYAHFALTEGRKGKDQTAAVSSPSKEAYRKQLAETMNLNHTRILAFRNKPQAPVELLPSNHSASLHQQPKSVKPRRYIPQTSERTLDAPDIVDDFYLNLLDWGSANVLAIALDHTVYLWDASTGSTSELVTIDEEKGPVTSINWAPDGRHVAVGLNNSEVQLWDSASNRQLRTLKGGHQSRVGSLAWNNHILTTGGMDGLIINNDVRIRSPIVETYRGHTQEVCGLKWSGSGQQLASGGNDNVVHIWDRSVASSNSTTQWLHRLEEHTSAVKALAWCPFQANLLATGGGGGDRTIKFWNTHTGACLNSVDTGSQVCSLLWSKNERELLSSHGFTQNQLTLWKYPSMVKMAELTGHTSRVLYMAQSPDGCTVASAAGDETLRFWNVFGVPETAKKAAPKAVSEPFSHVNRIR

[4] = target: T4, GST-CDC20-2 (Arabidopsis) (UniProt Q9S7I8); assay: as above
T4 sequence: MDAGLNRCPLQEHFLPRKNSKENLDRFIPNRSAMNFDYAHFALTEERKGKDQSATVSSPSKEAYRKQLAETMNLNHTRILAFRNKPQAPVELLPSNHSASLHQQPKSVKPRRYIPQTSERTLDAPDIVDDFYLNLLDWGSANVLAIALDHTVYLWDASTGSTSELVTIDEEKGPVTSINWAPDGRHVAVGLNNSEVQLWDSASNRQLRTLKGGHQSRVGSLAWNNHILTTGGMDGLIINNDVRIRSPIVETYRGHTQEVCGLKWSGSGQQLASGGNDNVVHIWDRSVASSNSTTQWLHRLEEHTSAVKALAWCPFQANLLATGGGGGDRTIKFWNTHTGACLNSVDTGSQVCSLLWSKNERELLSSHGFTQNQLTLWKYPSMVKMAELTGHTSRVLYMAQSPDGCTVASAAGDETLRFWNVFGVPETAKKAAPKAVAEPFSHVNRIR

GST-APC10 (Arabidopsis) = target: T5, GST-APC10 (Arabidopsis) (UniProt Q9ZPW2); assay: as above
T5 sequence: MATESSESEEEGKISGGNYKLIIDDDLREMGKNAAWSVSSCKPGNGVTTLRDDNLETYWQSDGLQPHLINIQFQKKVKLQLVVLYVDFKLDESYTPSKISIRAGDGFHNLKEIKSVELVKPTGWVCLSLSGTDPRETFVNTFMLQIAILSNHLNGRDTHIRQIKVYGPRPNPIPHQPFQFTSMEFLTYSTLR

[5] = target: T6, GST-CDC20-3 (Arabidopsis) (UniProt Q9S7H3); assay: as above
T6 sequence: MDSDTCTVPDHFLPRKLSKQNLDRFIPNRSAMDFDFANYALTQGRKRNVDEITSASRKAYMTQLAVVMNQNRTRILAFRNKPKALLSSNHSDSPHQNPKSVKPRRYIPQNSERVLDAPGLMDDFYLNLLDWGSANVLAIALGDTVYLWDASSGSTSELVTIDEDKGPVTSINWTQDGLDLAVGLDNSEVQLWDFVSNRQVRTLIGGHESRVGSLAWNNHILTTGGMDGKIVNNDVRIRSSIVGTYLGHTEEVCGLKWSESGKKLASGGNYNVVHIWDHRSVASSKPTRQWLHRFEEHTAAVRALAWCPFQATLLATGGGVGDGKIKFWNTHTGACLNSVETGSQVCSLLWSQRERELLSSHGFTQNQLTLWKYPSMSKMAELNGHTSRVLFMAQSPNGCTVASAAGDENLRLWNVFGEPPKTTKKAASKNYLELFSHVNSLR

YN-APC10 (Arabidopsis) = target: T7, YN-APC10 (Arabidopsis) (UniProt Q9ZPW2); assay: split reporter; BiFC (split YFP): YN and YC plasmids co-bombarded with NLS-CFP into hypocotyl cells of 4 day-old etiolated mustard seedlings; fluorescence microscopy after a night at 25°C in darkness
T7 sequence: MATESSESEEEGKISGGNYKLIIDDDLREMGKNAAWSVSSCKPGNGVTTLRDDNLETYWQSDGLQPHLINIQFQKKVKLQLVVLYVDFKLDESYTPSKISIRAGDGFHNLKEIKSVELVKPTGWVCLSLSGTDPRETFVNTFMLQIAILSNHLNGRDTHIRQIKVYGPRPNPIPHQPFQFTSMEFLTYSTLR

B1: DRB4 (Double-stranded RNA Binding protein 4), full length, yeast two-hybrid fusion (protein, UniProt Q8H1D4 1-355)
chain: MDHVYKGQLQAYALQHNLELPVYANEREGPPHAPRFRCNVTFCGQTFQSSEFFPTLKSAEHAAAKIAVASLTPQSPEGIDVAYKNLLQEIAQKESSLLPFYATATSGPSHAPTFTSTVEFAGKVFSGEEAKTKKLAEMSAAKVAFMSIKNGNSNQTGSPTLPSERQEDVNSNVKSSPQEIHSQPSSKVVMTPDTPSKGIKVNEDEFPDLHDAPASNAKEINVALNEPENPTNDGTLSALTTDGMKMNIASSSLPIPHNPTNVITLNAPAANGIKRNIAACSSWMPQNPTNDGSETSSCVVDESEKKKLIMGTGHLSIPTGQHVVCRPWNPEITLPQDAEMLFRDDKFIAYRLVKP
With B1 the binding [1] was “binds” and the binding [2] was “binds”.

B2: [35S]methionine-labelled DRB4 (protein, UniProt Q8H1D4 1-355)
chain: MDHVYKGQLQAYALQHNLELPVYANEREGPPHAPRFRCNVTFCGQTFQSSEFFPTLKSAEHAAAKIAVASLTPQSPEGIDVAYKNLLQEIAQKESSLLPFYATATSGPSHAPTFTSTVEFAGKVFSGEEAKTKKLAEMSAAKVAFMSIKNGNSNQTGSPTLPSERQEDVNSNVKSSPQEIHSQPSSKVVMTPDTPSKGIKVNEDEFPDLHDAPASNAKEINVALNEPENPTNDGTLSALTTDGMKMNIASSSLPIPHNPTNVITLNAPAANGIKRNIAACSSWMPQNPTNDGSETSSCVVDESEKKKLIMGTGHLSIPTGQHVVCRPWNPEITLPQDAEMLFRDDKFIAYRLVKP
modifications: [35S]methionine-labelled
In the case of B2, the binding [3] is reported as “no binding”, the binding [4] is reported as “no binding” and the binding (GST-APC10 (Arabidopsis)) is reported as “binds”. The binding [5] was “no binding”.

B3: YC-DRB4 (protein, UniProt Q8H1D4 1-355)
chain: MDHVYKGQLQAYALQHNLELPVYANEREGPPHAPRFRCNVTFCGQTFQSSEFFPTLKSAEHAAAKIAVASLTPQSPEGIDVAYKNLLQEIAQKESSLLPFYATATSGPSHAPTFTSTVEFAGKVFSGEEAKTKKLAEMSAAKVAFMSIKNGNSNQTGSPTLPSERQEDVNSNVKSSPQEIHSQPSSKVVMTPDTPSKGIKVNEDEFPDLHDAPASNAKEINVALNEPENPTNDGTLSALTTDGMKMNIASSSLPIPHNPTNVITLNAPAANGIKRNIAACSSWMPQNPTNDGSETSSCVVDESEKKKLIMGTGHLSIPTGQHVVCRPWNPEITLPQDAEMLFRDDKFIAYRLVKP
For B3, the binding (YN-APC10 (Arabidopsis)) was “binds”.

B4: YC-DRB1 (protein, UniProt O04492 1-419)
chain: MTSTDVSSGVSNCYVFKSRLQEYAQKYKLPTPVYEIVKEGPSHKSLFQSTVILDGVRYNSLPGFFNRKAAEQSAAEVALRELAKSSELSQCVSQPVHETGLCKNLLQEYAQKMNYAIPLYQCQKVETLGRVTQFTCTVEIGGIKYTGAATRTKKDAEISAGRTALLAIQSDTKNNLANYNTQLTVLPCEKKTIQAAIPLKETVKTLKARKAQFKKKAQKGKRTVAKNPEDIIIPPQPTDHCQNDQSEKIETTPNLEPSSCMNGLKEAAFGSVETEKIETTPNLEPPSCMNGLKEAAFGSVETEKIETTPNLEPPSCMNGLKEAAFGSVETEKIETTPNLEPSSCMNGLKEAAFGSVETEKIETTPNLEPPSCMNGLKEAAFGSVETEKIETTPNLESSSCMSGLKEAAFGSVETEASHA
In the case of B4, the binding (YN-APC10 (Arabidopsis)) is reported as “no binding”.

B5: YC-DRB2 (protein, UniProt Q9SKN2 1-434)
chain: MYKNQLQELAQRSCFNLPSYTCIREGPDHAPRFKATVNFNGEIFESPQYCSTLRQAEHSAAEVALNALSNRGPSHSLAARILDETGVYKNLLQEIAQRVGAPLPRYTTFRSGLGHQPVFTGTVELAGITFTGDPAKNKKQAEKNAAMAAWSSLKQLAKETSSSMPEPENIDELEQVIIARALINYRIKENIGTGSSSSAPVPFAKKFFMQNLRPTSPQPSPATTSRILPFICPKQPSRSSRSSLAATSGIDRIMAAALESRSYQRPQQRFANPPYVPMRQFRSQCHGMAPPVTIRTAVPVFSAPPMPPPPCTNNTQLPSSVYVPSLMRTAPPVRIAPPVTIRTAVPVFASAPPVRIRTAVKPTVEAGETRISSVQEKESIPVLPDSLEIGVEGSTITITDCEKTASKETERAEFKDSSKGEPETARERLENLKI
For B5, the binding (YN-APC10 (Arabidopsis)) was “no binding”.
